PMC4336329 (PLoS ONE, 2015)
Hit rate of the full screen: of about 310,000 compounds, about 14,000 (4.5%) showed an effect of 50% or more. The effect is printed as a negative number. The list shows a part of the results.

Biological target: human ether-à-go-go-related gene (hERG) potassium channel (human, UniProt Q12809)
Assay: primary screen, population patch clamp on CHO cells stably expressing hERG
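Note: peak tail current of the secondary pulse compared with the same well before compound.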

Chain of human ether-à-go-go-related gene (hERG) potassium channel (Q12809 whole entry, looked up): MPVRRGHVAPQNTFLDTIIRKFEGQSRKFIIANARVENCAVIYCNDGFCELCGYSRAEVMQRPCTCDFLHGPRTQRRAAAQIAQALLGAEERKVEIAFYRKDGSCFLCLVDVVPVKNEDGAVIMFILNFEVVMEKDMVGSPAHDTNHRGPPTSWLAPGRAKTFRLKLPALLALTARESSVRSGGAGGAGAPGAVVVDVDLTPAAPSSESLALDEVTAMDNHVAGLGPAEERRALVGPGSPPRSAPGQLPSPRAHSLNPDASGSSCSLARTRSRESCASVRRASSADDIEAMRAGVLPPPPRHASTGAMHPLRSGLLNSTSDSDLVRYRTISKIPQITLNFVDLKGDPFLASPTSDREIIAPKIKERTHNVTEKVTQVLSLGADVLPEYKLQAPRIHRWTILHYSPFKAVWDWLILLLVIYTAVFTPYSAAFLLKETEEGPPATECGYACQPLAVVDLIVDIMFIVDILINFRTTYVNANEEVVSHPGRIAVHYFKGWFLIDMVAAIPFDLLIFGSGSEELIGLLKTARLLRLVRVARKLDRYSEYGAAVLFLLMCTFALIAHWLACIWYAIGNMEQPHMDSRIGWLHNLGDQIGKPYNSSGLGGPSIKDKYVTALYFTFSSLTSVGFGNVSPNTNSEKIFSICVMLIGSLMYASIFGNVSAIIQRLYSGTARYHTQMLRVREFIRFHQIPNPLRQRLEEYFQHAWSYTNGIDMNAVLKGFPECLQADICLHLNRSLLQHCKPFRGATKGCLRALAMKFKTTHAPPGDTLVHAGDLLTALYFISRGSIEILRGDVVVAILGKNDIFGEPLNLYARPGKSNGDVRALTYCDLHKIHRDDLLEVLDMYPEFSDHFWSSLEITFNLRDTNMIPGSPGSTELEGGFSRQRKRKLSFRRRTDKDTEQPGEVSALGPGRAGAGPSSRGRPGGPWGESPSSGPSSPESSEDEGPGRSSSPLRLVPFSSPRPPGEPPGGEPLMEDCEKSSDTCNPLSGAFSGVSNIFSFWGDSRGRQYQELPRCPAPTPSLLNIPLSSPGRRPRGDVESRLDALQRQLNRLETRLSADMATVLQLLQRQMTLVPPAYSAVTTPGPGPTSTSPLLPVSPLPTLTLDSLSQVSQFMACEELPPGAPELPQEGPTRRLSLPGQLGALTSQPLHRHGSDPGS

Compound	hERG current change (%, negative = inhibition) at 10uM [%]
CC1CCN(C(=O)CCCNC(=O)Cn2cnc3sc4c(c3c2=O)CCCC4)CC1	-34.6
CN(Cc1ccccn1)C(=O)c1ccc2nc(Cc3cccc(Cl)c3)oc2c1	-35.8
CC(=O)Nc1ccc(SCC(=O)c2ccc(Br)s2)cc1	19.5
COc1ccc(NC2=NCC(=O)N2c2ccccc2F)cc1.Cl	12.2
CC(=O)Nc1cccc(NC(=S)Nc2ccc(F)c(Cl)c2)c1	-11.6
COc1ccc(NC(=S)Nc2ccc(S(N)(=O)=O)cc2)c(C)c1	20.7
Cc1nc([N+](=O)[O-])nn1C12CC3CC(CC(Br)(C3)C1)C2	2.5
O=c1[nH]c2cc3c(cc2cc1C(c1nnnn1C1CCCCC1)N1CCSCC1)OCCO3 (stereo not shown)	-2.71
CCC1CCCCN1CCCNC(=O)C1CCC(=O)N1Cc1ccc(C)cc1 (stereo not shown)	5.79
CN(CCNC(=O)c1cn(C)c2ccc(S(=O)(=O)N3CCCC3)cc2c1=O)CCc1ccccc1	-41.2
CC(NC(=O)c1ccco1)C(=O)N1CCN(S(=O)(=O)c2ccccc2C#N)CC1 (stereo not shown)	-8.15
CC(OC(=O)/C=C/c1cccc(F)c1)C(=O)NC1CCCCC1C (stereo not shown)	14.1
Cc1ncoc1C(=O)N1CCc2c([nH]c3ccccc23)C1C(C)(C)C (stereo not shown)	-65.3
CCOC(=O)c1c(C)[nH]c(C2=NNC(=NC(C)COC)SC2)c1C (stereo not shown)	12.6
Cc1ccc(C(C)C)c(OCC(=O)N2CCN(Cc3nc4cc([N+](=O)[O-])ccc4n3C)CC2)c1	-65.8
O=C(Nc1nnc(SCc2ccc(F)cc2)s1)c1cccnc1Cl	2.48
N#Cc1ccc(C(=O)Nc2nnc(-c3cccs3)o2)cc1	5.28
COc1ccc(/C=C/C(=O)NCC(=O)N/N=C/c2cccs2)cc1	0.0661
CC1CC(=O)N(CC(=O)Nc2ccc(F)cc2F)c2ccccc2S1(=O)=O (stereo not shown)	-10.7
Cc1nc2cc(C(F)(F)F)ccc2n1C1CCN(Cc2nnnn2CCc2ccccc2)CC1	-68.4
COc1ccc(-c2ccnc3c(C(=O)O)cnn23)cc1	20.6
Cc1cc2c3ccccc3ncn2n1	20.9

Compound	hERG current change (%, negative = inhibition) at 10uM [%]
CCCC(=O)NC1C2CC3CC(C2)CC1C3 (stereo not shown)	7.21
O=C(Cn1cnc2c(nnn2-c2ccccc2)c1=O)NCCc1ccccc1	-22.7
COc1ccc(N=CC2=C(O)c3ccccc3C2=O)cc1	11.1
CNC(=S)N(CCO)Cc1cc2cc3c(cc2[nH]c1=O)OCCO3	21.2
COc1cccc2[nH]c3c(=O)n(CCCN4CCOCC4)cnc3c12	-7.06
CCOC(=O)c1cnc2nc[nH]n2c1=O	9.75
O=C(NN1C(=O)c2ccccc2C1=O)c1ccccc1[N+](=O)[O-]	7.17
O=C(Nc1ccccn1)c1ccc([N+](=O)[O-])cc1Cl	-3.15
CCN(CC)C(=O)COc1ccc2c3c(c(=O)oc2c1)CCCC3	-12.8
CC(C)CC(=O)NCCCCc1ccccc1	-12.6
Cc1ccccc1NC(=O)NCCCCc1ccccc1	-0.346
O=C(CCNS(=O)(=O)c1ccc(Br)cc1)NCc1ccc(Cl)cc1	6.61
Cc1csc2c(N3CCN(C(=S)Nc4ccc(C(F)(F)F)cc4)CC3)ncnc12	-9.35
Cc1ccc(S(=O)(=O)N2CCN3CCCC3C2)cc1 (stereo not shown)	-6.76
Cl.O=C(c1ccc(Cn2ccc([N+](=O)[O-])n2)cc1)N1CCN(Cc2ccccc2)CC1	-56.1
COc1ccc(C)cc1Nc1nc(N)c2ccccc2n1.Cl	-12.8
O=C(O)CCCN1C(=O)C(=O)/C(=C(/O)c2ccc(Cl)cc2)C1c1ccccc1 (stereo not shown)	10.3
Cc1ccc(OCC(=O)NNC(=O)[C@@H]2CCCC[C@@H]2C(=O)O)c(Br)c1	14.1
CCCCC(c1nnnn1CCOC)N1CCN(Cc2ccccc2)CC1.Cl (stereo not shown)	-46.9
CCc1cc(CNC(=O)CCc2nnc(Cc3cccc(C)c3)o2)on1	10.2
COC(=O)c1cc(C(=O)NCc2ccc3c(c2)OCO3)cc([N+](=O)[O-])c1	-3.75
CC(=O)c1sc(NCc2ccccc2)nc1C	18.6

Compound	hERG current change (%, negative = inhibition) at 10uM [%]
O=C(CCc1nc2ccccc2[nH]1)Nc1ccccc1F	9.18
CCOc1ccc(-c2nc(CSc3nnc(N)s3)cs2)cc1	8.94
CCC(CC)C(=O)NC1CCSC1=O (stereo not shown)	14.9
O=C(c1ccc(-c2cc3ccccc3oc2=O)cc1)N1CCN(c2ccc(Cl)cc2[N+](=O)[O-])CC1	2.07
CCN(C(=O)COc1cccc2cccnc12)C1CCS(=O)(=O)C1 (stereo not shown)	10.8
CCN(c1nc(N)c(C(=O)N=C(N)N)nc1Cl)C(C)C	-38.9
CCC(CC)NC(=O)Nc1ccc(F)cc1F	7.35
COCCn1c(SCc2cccc([N+](=O)[O-])c2)nc2ccccc2c1=O	-16.2
C=CCn1c(Cc2ccc(OCC)cc2)nnc1SCC(N)=O	10
O=C(NC(=S)Nc1ccc(Oc2ccc(Cl)cc2)cc1)c1ccccc1	10.7
Cc1ccc2ccc(C(Nc3ccccn3)c3ccccc3)c(O)c2n1 (stereo not shown)	-3.72
C/C(CC(=O)Nc1ccccn1)=N\NC(=O)Cc1cccc2ccccc12	1.01
Clc1cccc(Cl)c1-c1noc(-c2ccno2)n1	-6.35
O=C(NNC(=O)c1ccccc1C(=O)O)c1ccc(-c2ccccc2)cc1	-3.52
CC(CN1CCN(Cc2ccccc2)CC1)c1ccccc1.O=C(O)C(=O)O (stereo not shown)	-14
CC(=O)N1CCN(c2ccc(NC(=O)c3ccc(Cl)c([N+](=O)[O-])c3)cc2)CC1	-10.9
O=C(CCNS(=O)(=O)c1ccc(Cl)cc1)N1CCC2(O)CCCCC2C1 (stereo not shown)	1.08
COc1cccc(-n2c(Cc3cc(=O)[nH]c(=O)[nH]3)nnc2SCC(=O)N2CCC(C)CC2)c1	26.2
Cc1cc(C)cc(NC(=O)C2CCN(S(=O)(=O)c3ccc4c(c3)NC(=O)C(C)S4)CC2)c1 (stereo not shown)	8.79
Cc1ccc(N2C(=O)c3cccc4cccc(c34)C2=O)cc1	16.7
O=C(Nc1ccc(F)cc1)N1CCCC(c2nc3c(nnn3Cc3ccccc3Cl)c(=O)[nH]2)C1 (stereo not shown)	16.7
Cc1nnc(C)c2c(C)n(C(C)c3ccccc3)c(C)c12 (stereo not shown)	-20.7

Compound	hERG current change (%, negative = inhibition) at 10uM [%]
CCCc1c(C)nc(N2CCN(c3cccc(OC)c3)CC2)[nH]c1=O	17.4
CCOC(=O)C1CCN(c2c(N3CCCCCC3)c(=O)c2=O)CC1	-10.5
Cc1ccccc1Cn1c(C)nc2ccccc21	8.3
Cc1ccc(C(=O)N/C(=C\c2cccnc2)c2nc3ccccc3[nH]2)cc1	-19.7
CCOC(=O)COc1ccc2c(=O)c(-c3ccc(OC)c(OC)c3)c(C(=O)OCC)oc2c1	-15.7
Cc1ccc(NC(=O)CSc2nnc(-c3ccncc3)n2C)cc1S(=O)(=O)N1CCOCC1	0.576
Cc1cc(C)n(/N=C/c2cc([N+](=O)[O-])ccc2O)c(=O)c1	18.2
O=C1CCCN1c1cc(Cl)cc(Cl)c1	4.18
CCCCN(CC)CCNC(=O)Cn1cc2c(n1)-c1c(oc(C(=O)N3CCCC3)c1C)CC2	-27.9
O=C(COC(=O)/C=C/c1ccc(S(=O)(=O)N2CCOCC2)cc1)NC1CCCCCCC1	32.2
CCOc1cccc(SCc2noc(C(=O)NCCOC)c2C(=O)O)c1	-3.55
Cc1nn(C)c(Cl)c1C(=O)NC(C(=O)O)c1ccccc1 (stereo not shown)	-14.7
COCCCNC(=O)c1ccc2c(=O)n(Cc3ccc(OC)cc3)c(=O)[nH]c2c1	1.04
c1ccc(CN(Cc2ccccc2)c2c3c(nc4ncnn24)CCC3)cc1	-31.1
CC(=O)N1CCN(c2ccc(Oc3ccc([N+](=O)[O-])c(C(F)(F)F)c3)cc2)CC1	-59.9
COC(=O)c1cc(OC)c(OC)cc1NC(=O)c1c(-c2ccccc2)noc1C	-6.47
COc1ccc(C2c3[nH]c4ccccc4c3CCN2C(=O)c2cc3ncccn3n2)c(F)c1 (stereo not shown)	-1.88
O=C(O)CSc1nc(-c2ccccc2)nc2c1CCCC2	12.8
N#Cc1nc(COc2cccc(Cl)c2)oc1NCc1ccco1	-16.8
CCOc1ccc(S(=O)(=O)NCCC(=O)OCC(=O)c2ccc(NC(C)=O)cc2)cc1	1.73
CCN1C(=O)c2cccc3c(S(=O)(=O)NCCCN4CCOCC4)ccc1c23	-12.8
CCCOc1ccc(C(=O)NCC(c2cccs2)N(C)C)cc1 (stereo not shown)	-25.3
